This note sets out measurements from PubChem BioAssay (NCI).

Molecules are shown by their SMILES.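 Tested at 5 concentrations; 48 h exposure; 96-well plates; endpoints linearly interpolated, else capped at highest concentration. GI50 marks 50% less growth. TGI marks complete inhibition of growth.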

The test has as its system NCI-H322M lung. The test is described as follows: inhibition of tumour cell growth, NCI panel, 48 h.

With `c1ccc([P+](CCC[P+](c2ccccc2)(c2ccccc2)c2ccccc2)(c2ccccc2)c2ccccc2)cc1`, the GI50 is 48.4 µM and the TGI was > 100 µM.
Regarding `Oc1oc(-c2ccccc2)nc1/C=C1/C=NN=N1`, the TGI was > 100 µM.
In the case of `CC1=NN(c2cccc(Cl)c2)C2(C1)SCC(=O)N2c1nc2ccccc2s1` (stereo not given), the TGI came to 86.8 µM.
With `O=C(/C=C\c1ccc(OCCCCCC[P+](c2ccccc2)(c2ccccc2)c2ccccc2)cc1)c1ccc2c(c1)OCCO2`, the GI50 was 1.79 µM and the TGI is 3.95 µM.
For the molecule `Cc1cc(C)c(N)c(C)c1N`, the TGI is > 100 µM.
As to `O=c1cc(-c2ccc[nH]2)[nH]c2cc3c(cc12)OCO3`, the TGI is > 100 µM.
For `CCc1c(-c2coc(CC/C(C)=C/c3ccccc3)n2)oc(OC)c(C)c1=O`, the TGI is > 100 µM.
As to `CC(=O)[CH-]C(=O)c1ccccc1.CC(=O)[CH-]C(=O)c1ccccc1.CC[O-].O=C1C=C([O-])C(=O)c2ccccc21.[Ti+4]`, the GI50 was > 100 µM and the TGI is > 100 µM.
Take `Cn1c(=O)c2[nH]cnc2n(CC(=O)O)c1=O`: the TGI was > 100 µM.
`CCCCCCCCCCCCOC(=S)NC` had a TGI of 61.9 µM.
Regarding `CN1CCN(CCCCNc2cc3c4ccccc4c(NCCCCN4CCN(C)CC4)cc3c3ccccc23)CC1`, the TGI turned out to be 14.9 µM.
`COc1cc(C2c3cc4c(cc3[C@@H](Nc3ccc(N5CCOCC5)cc3)C3COC(=O)[C@H]23)OCO4)cc(OC)c1O` (stereo not given in full) gave a TGI of 36.4 µM.
`CN(/C(=N\O)c1ccccc1)c1ccccc1`: the TGI is > 100 µM.
As to `CC1CCC(C#N)(NOC2=NCCN2)CC1` (stereo not given), the GI50 was > 100 µM and the TGI was > 100 µM.
Consider `C/C=C/COc1cc(NC(=S)c2ccoc2C)ccc1OC`, for which the TGI is > 100 µM.
For `CN(C)Cc1cc(C(=O)/C=C/c2c(F)cccc2Cl)cc(CN(C)C)c1O`, the TGI amounted to 28.2 µM.
`CCC(C)c1cnc(CC(C)C)c(=O)[nH]1` (stereo not given): the TGI is > 100 µM.
For the molecule `COc1ccc(-c2cc(-c3ccc(Nc4ccnc5cc(C(F)(F)F)ccc45)cc3)[nH]c(=O)c2C#N)cc1`, the TGI was > 100 µM.
`COc1cccc2cc(N(C)c3nc(C)nc4ccsc34)ccc12`: the GI50 is < 0.01 µM and the TGI was 23.6 µM.
Turning to `CN(C)CCC(=O)NCc1c2nc3ccccc3nc2n2ccccc12`, the GI50 is 40 µM and the TGI is > 100 µM.
Take `COc1cc(CCC(=O)NS(=O)(=O)c2ccccc2)cc(OC)c1OC`: the TGI was > 100 µM.
With `CCN(CC)CCNC(=O)c1cc2cc(NC(=O)c3cc4cc(NC(=O)c5cc6cc([N+](=O)[O-])ccc6[nH]5)ccc4[nH]3)ccc2[nH]1`, the TGI is > 100 µM.
The same measure, in the same setting: in the case of `CCC(c1nc2ccccc2c(=O)n1NC(=O)C(C)(C)C)C1(O)CCCCC1` (stereo not given) it was > 100 µM.
In the case of `COC(=O)C1=C2Nc3ccccc3C23CCN2C(O)C4(CC5CC67CCOC6CCN6CCC8(c9cccc(OC)c9N(C4)C58O)C67)C4OCCC4(C1)C23` (stereo not given), the TGI was > 100 µM.
As for `CCOC(=O)CCc1c(C)c2c(O)cc(O)cc2oc1=O`, the TGI is > 100 µM.
Turning to `CC1(C)C(C(=O)OC(C#N)c2cccc(OCC(=O)OCc3ccccc3)c2)C1(C)C` (stereo not given), the TGI was > 100 µM.
For the molecule `OC1NC2CC3NC(O)C(O)NC3CC2NC1O` (stereo not given), the TGI was > 100 µM.
`O=S(=O)(Nc1nc(-c2cc(O)c(O)c(O)c2)cs1)c1ccc(Cl)cc1Cl`: the TGI is 31.7 µM.
`C[C@@]1(CBr)C[C@@](C)(/C=C/Cl)[C@@H](Cl)C[C@H]1Cl`: the TGI worked out at 28 µM.
For `CCN1CCC(O)(c2ccc(Cl)c(Cl)c2)C(C(=O)c2ccc(Cl)c(Cl)c2)C1` (stereo not given), the TGI came to 27.7 µM.
`CC1(C)CC(=O)C2=C(C1)N(c1ccccc1)C1(O)C=CC(=O)C3=C(O)c4ccccc4C(=O)C321` (stereo not given): the TGI is > 100 µM.
In the case of `COc1ccc(CCNC(=S)/N=C\C2=C(O)c3ccccc3C2=O)cc1OC`, the TGI was > 100 µM.
For `COC(=O)NN=C1C(C)(C)C(=NNC(=O)OC)C1(C)C`, the TGI was > 100 µM.
`Cn1nc2ccc3nccc(NCCNCCCl)c3c2n1`: the TGI was > 100 µM.
For the molecule `CN(C)NC(=S)NC12CC3CC(CC(C3)C1)C2`, the TGI was > 100 µM.
As for `Cc1sc2c(c1C)C(c1ccc(Cl)cc1)=N[C@@H](CC(=O)Nc1ccc(O)cc1)c1nnc(C)n1-2`, the GI50 was 1.5 µM and the TGI is > 89.6 µM.
Take `FC(F)(F)c1nc2cc(SSc3cc4nc(C(F)(F)F)[nH]c4cc3Cl)c(Cl)cc2[nH]1`: the TGI was > 100 µM.
Take `CC1(C)CC(O)CCCCCCOc2c(CN)cccc2NC(=O)c2nc(cnc2N)-c2ccc(cc2)S1(=O)=O` (stereo not given): the GI50 is 1.32 µM and the TGI came out at 3.4 µM.
In the case of `NC(=O)C12CCC1C1CCCCC12N1CCOCC1` (stereo not given), the TGI is > 100 µM.
`O=C(Cc1ccccc1)NN1C(=O)C(Cl)C1c1ccccc1` (stereo not given): the TGI was > 100 µM.
On the same count and under the same terms, in the case of `CCC(=O)n1c(=O)n(-c2ccc([N+](=O)[O-])cc2)c(=O)n1C(=O)CC` it was > 100 µM.
On to `CCNC(=O)CCCCC(=O)c1c(C)[nH]c(/C=C2\N=C(c3ccc[nH]3)C=C2OC)c1C`, for which the GI50 was 10 µM and the TGI was found to be 27.5 µM.
`N/C(=N\N=C/c1cc(Cl)cc(Cl)c1O)NO` showed a TGI of 60.3 µM.
Consider `COC(=O)c1cccc2c1Oc1ccccc1S2`, for which the TGI is > 100 µM.
As for `COc1cc(C(=O)/C=C/c2c(-c3cccs3)nc3ccccn23)cc(OC)c1OC`, the GI50 was 3.02 µM and the TGI is 17.9 µM.
`COC(=O)C[C@](O)(CCC(C)(C)O)C(=O)O[C@@H]1C(OC)=C[C@]23CCCN2CCc2cc4c(cc2[C@H]13)OCO4` registered a TGI of 1.55 µM.
On the same count and under the same terms, as for `Cc1ccc(N2C(=O)C(O)=C(C(=O)C(C)(C)C)C2c2ccc([N+](=O)[O-])cc2)cc1` (stereo not given), the figure is 82.1 µM; as for `COC(=O)C1(Cc2ccc3c(c2)CCC3)Cc2cc3c(cc2C1=O)CCC3` (stereo not given), > 46.4 µM.
Consider `CCCCCCCCCCC(CN(CC)CC)C(O)c1ccccc1` (stereo not given), for which the GI50 is 4.47 µM and the TGI is 16.4 µM.
`C=C(CN(CCN1CCOCC1)CC(=C)c1ccc(C(=O)Nc2ccccc2N)cc1)c1ccc(C(=O)Nc2ccccc2N)cc1`: the GI50 is 7.37 µM and the TGI was 31.8 µM.
Take `c1cc(C2N3CCCN2CC3)ccn1` (stereo not given): the TGI is > 100 µM.
For the molecule `CCC[CH2][Sn]1([CH2]CCC)[O]CC([CH2][Sn]([c]2ccccc2)([c]2ccccc2)[c]2ccccc2)[O]1` (stereo not given), the GI50 was 14.3 µM and the TGI was 27.3 µM.
As to `O=C(O)CCc1nc(-c2ccccc2)c(-c2ccccc2)o1`, the TGI is > 100 µM.
Consider `O=C(Nc1ccc(Cl)cc1)c1cc(S(=O)(=O)NC2=NC(c3ccccc3)c3cc(Cl)ccc3N2)c(SSc2cc(Cl)c(C(=O)Nc3ccc(Cl)cc3)cc2S(=O)(=O)NC2=NC(c3ccccc3)c3cc(Cl)ccc3N2)cc1Cl` (stereo not given), for which the TGI was > 100 µM.
The same measure, in the same setting: in the case of `Cn1c2cc(Cl)ccc2c2ccc3c(c21)C(=O)C=CC3=O` it was > 100 µM; in that of `CCOC(=O)CC(=Nc1cc(C)on1)N(CC)CC`, > 100 µM; in that of `O=C(O)c1ccc(/C=N\N(CCO)C2=NCCN2)cc1`, > 100 µM.
Consider `CCOC(=O)c1cn2ncnc(Oc3ccc(NC(=O)NCCN(CC)CC)c(Cl)c3)c2c1C`, for which the GI50 is 3.11 µM and the TGI worked out at 11.5 µM.
`COC(=O)C1CCC(N2C(=O)CCC2C(=O)OC)=N1` (stereo not given): the TGI is > 100 µM.
The same measure, in the same setting: as for `C[N+](C)(N)Cc1csc(-c2ccc(Cl)cc2)n1`, the figure is > 100 µM; as for `CNC(=O)C(NC(=O)[C@H](CC(C)C)NC(=O)[C@@H](S)CCN1C(=O)N(C)C(C)(C)C1=O)C(C)(C)C` (stereo not given in full), > 100 µM.
For the molecule `C#CCOc1cccc(Nc2ncnc3c2ncn3C2CCN(C(=O)CCl)C2)c1` (stereo not given), the GI50 is 76.9 µM and the TGI was > 100 µM.
Consider `O=C(OCc1c(-c2ccccc2)nn(-c2ccccc2)c1COC(=O)Oc1ccccc1)Oc1ccccc1`, for which the TGI was > 100 µM.
`CCN1CCN(c2cc(C)nc(NCc3cc(Nc4ccnc5cc(Cl)ccc45)ccc3F)n2)CC1`: the GI50 is 3 µM and the TGI is > 100 µM.
In the case of `COc1ccc2c(c1)Cc1c-2[nH]c2cc3c(cc2c1=O)OCO3`, the TGI is > 100 µM.
Same read-out and setting: in the case of `CC1=NN(C(=O)c2ccccc2)C(=O)C1N=Nc1ccccc1C(=O)O` (stereo not given) it was > 100 µM.
For `COc1ccc(-c2cc3nccn3c(Nc3ncccc3C(N)=O)n2)cc1OC`, the GI50 was 1.01 µM and the TGI was > 100 µM.
As to `Cc1ccc(-c2nc3n(c2/C=N\N=C(N)N)CCS3)cc1`, the TGI turned out to be 30.9 µM.
For the molecule `COc1ccc2nc(C3=CN(C4OC(CO)C(O)C(O)C4O)C4C=CC=CC34)sc2c1` (stereo not given), the GI50 is 24.2 µM and the TGI came out at 70.2 µM.
For the molecule `CCc1ccccc1NC(=O)C1=C(C)NC(C)=C(C(=O)Nc2ccccc2CC)C1c1ccc(NC(C)=O)cc1`, the TGI is > 100 µM.
`O=c1[nH]c2cc([N+](=O)[O-])c(N(CCO)CCO)c([N+](=O)[O-])c2[nH]1`: the TGI was > 100 µM.
Consider `CC(C)c1ccc(O)c(O)c(=O)c1` (tested in a mixture with another compound), for which the TGI is > 100 µM.
Still for that read-out and setting: as for `C=C(C)C(=O)N1c2ccc(OC)cc2CC1C(=O)OCC` (stereo not given), the figure is > 100 µM.
In the case of `CN(C)C(=S)/N=c1\ssc(=S)n1Cc1ccccn1`, the TGI was > 100 µM.
For the molecule `CSc1ccc(C(=O)/C=C/c2ccc(F)cc2)cc1`, the GI50 was > 100 µM and the TGI is > 100 µM.
`N=C(N)Cn1cnc2ccccc21`: the TGI was > 100 µM.
`CCCCCCCCCCCCCCCCCCOCC1(COP(=O)([O-])OCC[N+](C)(C)C)CCCO1` (stereo not given) registered a TGI of 26.2 µM.
`CCN(CC)CCNc1ccc2nnn3c4ccc(OC(C)=O)cc4c(=O)c1c23` registered a TGI of 17.4 µM.
As for `N#CNc1nc(C(=O)Nc2ccc(Cl)cc2)cc(-c2ccccc2)n1`, the TGI is > 100 µM.
With `O=C1C(Cl)=C(Nc2ccc3c(c2NC2=C(Cl)C(=O)c4ccccc4C2=O)C(=O)c2ccccc2C3=O)C(=O)c2ccccc21`, the GI50 was 2.41 µM and the TGI came out at 7.82 µM.
On to `CC(=O)NNc1nc(C)c(C(/C=C/c2ccc(Cl)cc2)=N/NC(=S)NN)s1`, for which the TGI was > 100 µM.
Take `CCCCCC/C=C/CCCCCCCc1cccc(O)c1C(=O)O`: the TGI was > 100 µM.
For `CCOC(CN(C)C(=O)OCC(Cl)(Cl)Cl)OCC`, the TGI was > 100 µM.
Regarding `COC(=O)C1=C2CO[C@@H]3C[C@H]4C(C)(C)CCC[C@]4(C)C(=CC1)[C@]23C`, the GI50 is 31.9 µM and the TGI is > 100 µM.
